{
  "source": "PubChem BioAssay AID588342",
  "about": "(National Center for Advancing Translational Sciences (NCATS), 2011)",
  "note": "Among all 360,000 compounds or so, about 25,000 (6.9%) were called active. The shares of active, inactive and inconclusive entries below differ from those in the screen. Calls come from the whole dose curve; as a rule, active = well fitted inhibition curve with a large enough effect; inconclusive = small, poorly fitted or top-dose-only effect; inactive = flat fitted curve, though single readings scatter. Where the call is inconclusive, the potency comes from a doubtful curve fit. Potency is the fitted concentration of half-maximal effect; tags give direction and shape of the fitted curve.",
  "data": [
    {"target": "Luciferin 4-monooxygenase (Photinus pyralis) (UniProt P08659)", "sequence (P08659 whole entry, looked up)": "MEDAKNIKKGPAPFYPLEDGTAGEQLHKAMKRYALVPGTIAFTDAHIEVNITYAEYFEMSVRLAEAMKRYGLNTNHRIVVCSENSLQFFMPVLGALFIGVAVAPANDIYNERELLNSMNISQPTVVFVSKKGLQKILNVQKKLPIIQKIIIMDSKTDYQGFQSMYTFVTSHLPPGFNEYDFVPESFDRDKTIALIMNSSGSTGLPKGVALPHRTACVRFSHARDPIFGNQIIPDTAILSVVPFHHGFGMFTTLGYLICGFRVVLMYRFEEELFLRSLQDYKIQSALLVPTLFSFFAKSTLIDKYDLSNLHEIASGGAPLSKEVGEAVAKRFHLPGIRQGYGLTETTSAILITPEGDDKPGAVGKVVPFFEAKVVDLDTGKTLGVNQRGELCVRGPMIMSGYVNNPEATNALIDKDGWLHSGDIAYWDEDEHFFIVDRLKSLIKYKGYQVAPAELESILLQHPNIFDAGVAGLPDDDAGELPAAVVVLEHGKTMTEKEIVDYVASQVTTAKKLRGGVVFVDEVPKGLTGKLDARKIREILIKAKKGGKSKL", "experiment": "qHTS profiling assay for firefly luciferase inhibitor/activator using purifed enzyme and Km concentrations of substrates (counterscreen for miR-21 project); note: nearly all actives have a fitted effect of over 55% in size", "conditions": "purified FLuc, luminescence inhibition; series mostly up to 57.5 µM", "summary_of_the_method": "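Purified P. pyralis luciferase (10nM final) with 10uM D-luciferin and 10uM ATP (Km levels) in 50mM Tris acetate pH 7.5, 10mM Mg acetate, 0.01% Tween-20, 0.05% BSA; qHTS 6-point titration, ~60 µM downward; luminescence read.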", "values": [
      {"smiles": "Cc1ccc(/C=N\\NC(=O)CCc2n[nH]c(=O)[nH]c2=O)o1", "Potency": "inactive"},
      {"smiles": "COc1cc2c(cc1NC(=O)c1cccnc1)CCCC2", "Potency": "inconclusive: 37.9 µM [inhibitor, partial curve, poor fit]"},
      {"smiles": "Cc1cc(C)c(C(=O)COC(=O)C2CC3CCCC(C2)C3=O)c(C)c1", "note": "(stereo not given)", "Potency": "inactive"},
      {"smiles": "CCCC(=O)Nc1ccc(C(=O)COC(=O)C2CC2C)cc1", "note": "(stereo not given)", "Potency": "active: 1.69 µM"},
      {"smiles": "CCOC(=O)c1cc2c(=O)n3ccccc3nc2n(CCCOC)c1=NC(=O)C(C)Oc1ccccc1", "note": "(stereo not given)", "Potency": "inactive"},
      {"smiles": "CN(C)S(=O)(=O)c1ccc(C(=O)N2CC(=O)Nc3ccc(Br)cc3C2c2ccc(F)cc2)cc1", "note": "(stereo not given)", "Potency": "inconclusive: 26.9 µM [inhibitor, partial curve, poor fit]"},
      {"smiles": "COc1ccc(NC(=O)c2ccco2)cc1NC(=O)c1cccc(F)c1", "Potency": "inconclusive: 23.9 µM [inhibitor, partial curve, poor fit]"},
      {"smiles": "CCN1CCN(c2c(S(=O)(=O)c3ccc(C)c(C)c3)cnc3cc(OC)c(OC)cc23)CC1", "Potency": "inactive"},
      {"smiles": "COc1cc(Br)c(C2CC(=O)Nc3cc(OC)c(OC)c(OC)c32)cc1OC", "note": "(stereo not given)", "Potency": "inactive"},
      {"smiles": "COc1ccccc1-n1cnc2cc(C(=O)NC3CCCC3)ccc21", "Potency": "inconclusive: 37.9 µM [inhibitor, partial curve, poor fit]"},
      {"smiles": "CCOCC(=O)Nc1ccc2c(c1)OCCO2", "Potency": "inconclusive: 15.1 µM [inhibitor, partial curve]"},
      {"smiles": "CCCOC(=O)c1ccc(NC(=O)COC)cc1", "Potency": "inconclusive: 26.9 µM [inhibitor, partial curve, poor fit]"},
      {"smiles": "O=C(CSCc1ccco1)c1ccc(Cl)s1", "Potency": "active: 6.75 µM"},
      {"smiles": "COc1ccc2ccccc2c1/C=N/NC(=O)c1ccc([N+](=O)[O-])cc1", "Potency": "inconclusive: 3.38 µM [inhibitor, full curve, poor fit]"},
      {"smiles": "CCN1C(=O)[C@@H]2[C@@H](c3ccc(SC4CCCCC4)c(OC)c3)N3CCC[C@@]3(C(=O)OC)[C@@H]2C1=O", "Potency": "inactive"},
      {"smiles": "Cn1c(=O)n(C)c2cc(NS(=O)(=O)c3ccc(Br)cc3)c(NCc3ccccc3)cc21", "Potency": "inconclusive: 23.9 µM [inhibitor, single point]"},
      {"smiles": "Cc1cc(C)c(S(=O)(=O)N2CCN(C(=O)CCn3nc(C)c(C)c3C)CC2)c(C)c1", "Potency": "inactive"},
      {"smiles": "CCCOc1ccc(C(=O)N/N=C/c2c[nH]c3ccc(Br)cc23)cc1", "Potency": "inconclusive: 26.9 µM [inhibitor, partial curve, poor fit]"},
      {"smiles": "COc1ccc(CCCc2n[nH]c(=S)o2)cc1C", "Potency": "inconclusive: 15.1 µM [inhibitor, partial curve]"},
      {"smiles": "CCCCN(C)S(=O)(=O)c1cc(-c2nnc3c4ccccc4c(C)nn23)ccc1C", "Potency": "inactive"},
      {"smiles": "CCN(C(=O)CN1C(=O)/C(=C/c2ccccc2F)SC1=S)C1CCS(=O)(=O)C1", "note": "(stereo not given)", "Potency": "inconclusive: 26.9 µM [inhibitor, partial curve, poor fit]"},
      {"smiles": "Cc1cc(NCCC(C)C)n2nc(C)c(-c3ccccc3)c2n1", "Potency": "inconclusive: 15.1 µM [inhibitor, partial curve]"},
      {"smiles": "Cc1ccc(S(=O)(=O)N2CCCc3ccccc32)cc1C", "Potency": "inconclusive: 37.9 µM [inhibitor, partial curve, poor fit]"},
      {"smiles": "CSC(=CC(=O)c1ccccc1)SC", "Potency": "inconclusive: 23.9 µM [inhibitor, single point]"},
      {"smiles": "CC1(C)CC(=O)C(N=Nc2ccc(-c3ccccc3)cc2)=C(O)C1", "Potency": "active: 2.13 µM"},
      {"smiles": "COc1ccccc1NC(=O)N1CCCC1C(=O)Nc1ccc2c(c1)OCCO2", "note": "(stereo not given)", "Potency": "inconclusive: 0.0135 µM [inhibitor, partial curve, poor fit]"},
      {"smiles": "COc1ccccc1CSc1nc2c(c(=O)n(C)c(=O)n2C)n1C", "Potency": "inconclusive: 37.9 µM [inhibitor, partial curve, poor fit]"},
      {"smiles": "O=C(CC(SCCO)c1ccc([N+](=O)[O-])cc1)c1ccco1", "note": "(stereo not given)", "Potency": "inactive"},
      {"smiles": "CCN1/C(=C2\\C(=O)N(C)C(=S)N2C)C=Cc2ccccc21", "Potency": "inconclusive: 23.9 µM [inhibitor, single point]"},
      {"smiles": "OCc1ccccc1OCCOc1ccc(Cl)c2cccnc12", "Potency": "active: 19 µM"},
      {"smiles": "Cc1ccc(C)c(NC(=O)c2ccc3nccnc3c2)c1", "Potency": "inconclusive: 37.9 µM [inhibitor, partial curve, poor fit]"},
      {"smiles": "COC(=O)c1sc(-c2ccc(C(C)(C)C)cc2)cc1NC(=O)CSCC(=O)O", "Potency": "active: 3.38 µM"},
      {"smiles": "Cc1ccc(N=Cc2c(O)[nH]c3ccccc23)c([N+](=O)[O-])c1", "Potency": "inconclusive: 13.5 µM [inhibitor, partial curve, poor fit]"},
      {"smiles": "CCOc1ccc(/C=N/OCC(=O)Nc2ccc3c(c2)OCO3)cc1", "Potency": "inconclusive: 21.3 µM [inhibitor, single point]"},
      {"smiles": "CC(=O)CSc1ncnc2sc3c(c12)CCCC3", "Potency": "inconclusive: 19 µM [inhibitor, single point]"},
      {"smiles": "COc1ccc(Nc2cc(Sc3ccc(OC)cc3)ncn2)cc1", "Potency": "inconclusive: 30.1 µM [inhibitor, partial curve, poor fit]"},
      {"smiles": "CCCCOC(=O)Nc1ccc(C)c(Cl)c1", "Potency": "active: 6.75 µM"},
      {"smiles": "Cc1ccc(-c2cc(C(=O)N/N=C/c3ccco3)n[nH]2)s1", "Potency": "inconclusive: 13.5 µM [inhibitor, partial curve]"},
      {"smiles": "COC(=O)C1=C(C)N(CCc2c[nH]c3ccccc23)C(=O)C1", "Potency": "inconclusive: 23.9 µM [inhibitor, single point]"},
      {"smiles": "O=C1CC(/C=C/c2ccccn2)=Nc2ccccc2N1", "Potency": "inconclusive: 30.1 µM [inhibitor, partial curve, poor fit]"},
      {"smiles": "Cc1ccc(SC(C)C(=O)NC2CC2)cc1", "note": "(stereo not given)", "Potency": "inactive"},
      {"smiles": "Cc1cccc(C(=O)Nc2nnc(-c3ccncc3)o2)c1", "Potency": "inconclusive: 21.3 µM [inhibitor, partial curve, poor fit]"},
      {"smiles": "Cc1nc2nc(CNC(=O)OC(C)(C)C)nn2c(C)c1CCC(=O)Nc1ccc2c(c1)OCO2", "Potency": "inconclusive: 30.1 µM [inhibitor, single point]"},
      {"smiles": "O=C(Nc1ccccc1)N1CCc2ccccc21", "Potency": "active: 21.3 µM"},
      {"smiles": "O=C(Nc1cccc(F)c1)Nc1ccnn1C1CCN(C(=O)c2cscn2)CC1", "Potency": "inconclusive: 30.1 µM [inhibitor, partial curve, poor fit]"}
    ]}
  ]
}
